The target of this test is T1, cynoAXL, a cynomolgus AXL receptor fragment comprising all extracellular domains of the macaque AXL receptor, … (Cynomolgus macaque (Macaca fascicularis)).
T1 construct: also called monkey AXL antigen
T1 chain: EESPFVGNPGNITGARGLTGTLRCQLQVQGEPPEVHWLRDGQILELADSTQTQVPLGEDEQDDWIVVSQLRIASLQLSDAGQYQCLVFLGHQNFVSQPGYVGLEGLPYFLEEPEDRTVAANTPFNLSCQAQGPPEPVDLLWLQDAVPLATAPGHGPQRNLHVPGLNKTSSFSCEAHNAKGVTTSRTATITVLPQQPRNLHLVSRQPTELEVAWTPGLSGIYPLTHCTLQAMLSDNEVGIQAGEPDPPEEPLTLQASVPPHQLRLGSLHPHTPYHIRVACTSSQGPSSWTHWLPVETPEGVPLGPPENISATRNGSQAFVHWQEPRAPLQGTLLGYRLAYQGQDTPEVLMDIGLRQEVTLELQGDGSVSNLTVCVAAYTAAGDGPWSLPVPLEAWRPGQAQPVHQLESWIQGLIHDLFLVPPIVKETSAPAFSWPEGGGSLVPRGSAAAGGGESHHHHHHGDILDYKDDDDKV
As to the kind of experiment: ELISA, coated antigen, antibody titrated. Background: In an ELISA, binding on a coated surface is turned into a signal by an enzyme label.

B1: anti-AXL antibody 01_004_2 (antibody, human IgG1, kappa)
heavy: QVQLVQSGGGVVQPGRSLRLSCAASGFSFSFFGIHWIRQAPGKGLEWVAFTSRDGNDKYYADSVKGRFTISKDNSKNTVYLQMNSLRAEDTAVYYCGRGNLAFDIWGEGTLVTVSSASTKGPSVFPLAPSSKSTSGGTAALGCLVKDYFPEPVTVSWNSGALTSGVHTFPAVLQSSGLYSLSSVVTVPSSSLGTQTYICNVNHKPSNTKVDKRV[human IgG1 Fc with changes omitted here]
light: DIVMTQSPDSLTASAGERATINCKSSQSVLLSANQKNYLAWYQQKPGQSPRLLIYWASTRESGVPDRFSGSGSGTDFTLTISNLQPEDAAVYYCHQGYTLPWTFGSGTKVEIKRTVAAPSVFIFPPSDEQLKSGTASVVCLLNNFYPREAKVQWKVDNALQSGNSQESVTEQDSKDSTYSLSSTLTLSKADYEKHKVYACEVTHQGLSSPVTKSFNRGEC
notes: The heavy chain Fc carries S239D and I332E (EU numbering) and lacks the C-terminal GK
In the case of B1, the binding result is recorded as “binds”.

The values above are taken from patent EP4724501A1 (dated 2026).
